“And” between values parts separate entries of the source, which are not always exact repeats. Equal entries are not always repeated. Screen size: about 420,000 compounds; about 64,000 (15%) were called active. This list was built around the results that the source calls inconclusive (neither active nor inactive); the mix of calls is not that of the screen. The call rests on the fitted dose curve; in most records, active means well fitted inhibition curve with a large enough effect; inconclusive means small, poorly fitted or top-dose-only effect; inactive means flat fitted curve, though single readings scatter. Potencies beside an inconclusive call are fits to weak or partial responses and may not hold up.
Assay: qHTS for Inhibitors of human tyrosyl-DNA phosphodiesterase 1 (TDP1): qHTS in cells in absence of CPT; further: nearly all actives have a fitted effect of over 55% in size
Details: DT40 Tdp1-/- hTDP1 cells, no CPT, ATP luminescence, 48 h; activity change, negative = growth inhibition: at 46.2 µM (top of the series) unless noted
Procedure, shortened: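 Growth kinetics read by CellTiter-Glo luminescence after ≥48 hr at 37 °C. Cells: DT40 Tdp1-/- stably carrying human TDP1, 400 per well, compound exposure in the absence of CPT (DMSO vehicle).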
On the % scale 0 is the no-effect control and ±100 the full control effect; potency means the concentration at half of the fitted maximal effect; tags describe the fitted curve by direction and shape.

Compound	Potency	activity change, negative = growth inhibition
O=C(Cn1cnc2ccccc2c1=O)N1CCN(Cc2ccccc2)CC1	inconclusive: 2.59 µM [inhibitor, full curve, poor fit]	
CCOC(=O)c1cnc2c(C)c(C)ccc2c1NCCN1CCOCC1	inconclusive: 29.1 µM [inhibitor, single point]	
COc1cc(C2c3c(-c4c(C)cc(C)cc4O)n[nH]c3C(=O)N2CCCOC(C)C)cc(OC)c1OC (stereo unspecified)		inactive: -16.3%
CCn1c(SCC(=O)N2CCN(c3ccccc3)CC2)nc2c([nH]c3ccccc32)c1=O	active: 8.2 µM	
O=C(c1ccccc1N(Cc1ccccc1)S(=O)(=O)c1ccccc1)N1CCOCC1	inconclusive: 18.4 µM [inhibitor, partial curve]	
COc1ccc(NC(=O)COC(=O)COc2cccc3c2OC(C)(C)C3)cc1		inactive: -11.9%
COc1ccccc1N1CCN(C(=O)c2cc(-c3ccc(F)cc3)[nH]c2C)CC1	inconclusive: 18.4 µM [inhibitor, single point]	
COCCn1c(N)c(C(=O)NS(=O)(=O)c2ccc(C)cc2)c(=O)[nH]c1=O	inconclusive: 23.1 µM [inhibitor, partial curve]	
CN(Cc1c(F)cccc1Cl)C(=O)c1cc2ccccc2o1	inconclusive: 29.1 µM [inhibitor, single point]	
Cc1cc(=O)n2[nH]c(=O)c(N=Nc3ccccc3)c2[nH]1	inconclusive: 7.31 µM [inhibitor, partial curve]	
Cc1c(C(=O)NCC2CCCO2)oc2ccc(S(=O)(=O)N3CC(C)CC(C)C3)cc12 (stereo unspecified)	inconclusive: 23.1 µM [inhibitor, single point]	
CCN(CC(=O)Nc1ccc(NC(C)=O)cc1)C(=O)CCN1C(=O)c2cccc([N+](=O)[O-])c2C1=O		inactive: 3.18%
O=c1c2[nH]c3ccc(F)cc3c2ncn1CCCN1CCOCC1	inconclusive: 29.1 µM [inhibitor, single point]	
FCCCOc1ccc(/C=N/OCc2ccc(Cl)cc2Cl)cc1	inconclusive: 20.6 µM [inhibitor, single point]	
CCCCNCCOCCOc1ccc(F)cc1	inconclusive: 14.6 µM [inhibitor, partial curve]	
COc1ccc(-c2nnc(OC)c3ccccc23)cc1	inconclusive: 23.1 µM [inhibitor, single point]	
C#CCn1ccc(O)c(Cc2ccccc2)c1=O		inactive: -16.9%
COc1ccc(N(CC(=O)Nc2ccc3c(c2)OCO3)S(=O)(=O)c2ccc(C)cc2)cc1OC		inconclusive: -31.6% [inhibitor]
COc1ccc(CCNC(=O)c2cnn(-c3nccc(-c4ccco4)n3)c2C)cc1		inactive: -21%
COc1ccc(N(C(=O)c2ccc(Cl)cc2)S(=O)(=O)c2ccc(C)cc2)cc1	active: 23.1 µM	
COc1cc(/C=N/NS(=O)(=O)c2ccccc2)ccc1OS(=O)(=O)c1ccc(C)cc1		inactive: -5.66%
CC(=O)Nc1ccc(S(=O)(=O)N2CCC(n3cnc4cc(F)ccc43)CC2)cc1	inconclusive: 29.1 µM [inhibitor, single point]	
Cc1cccc(Nc2nnc(SCC(=O)NCc3cccs3)s2)c1	inconclusive: 16.4 µM [inhibitor, single point]	
CSc1ccc(/C=C(/NC(=O)c2ccccc2)C(=O)N2CCN(C)CC2)cc1		inactive: 5.2%

Compound	Potency	activity change, negative = growth inhibition
COc1ccc(-c2nn(-c3ccccc3)cc2/C=C(/C#N)C(N)=O)cc1[N+](=O)[O-]	inconclusive: 29.1 µM [inhibitor, single point]	
C[C@H](NC(=O)c1[nH]cnc1C(=O)Nc1cccc(Cl)c1)c1ccccc1	active: 16.4 µM	
Cc1cc(N2CCN(c3ccccc3)CC2)nc(N)n1		inactive: -19.1%
COc1ccc(-c2cn3c(n2)sc2cc(C(=O)Nc4cccc(SC)c4)ccc23)cc1	active: 6.51 µM	
CCOC(=O)[C@]12CCCC=C1N(Cc1ccc3c(c1)OCO3)C(=O)[C@H](CC(=O)NCC13CC4CC(CC(C4)C1)C3)C2	active: 23.1 µM	
CC1CCC2(CC1)NC(=O)N(CC(=O)NC1CCCCC1C)C2=O (stereo unspecified)		inactive: -65.7%
CCCCNS(=O)(=O)c1ccc(N2CCCCS2(=O)=O)cc1	active: 23.1 µM	
COCCn1c(C)cc(C(=O)COC(=O)c2c(C)nn(Cc3ccccc3)c2C)c1C	inconclusive: 18.4 µM [inhibitor, single point]	
CCNC(=S)N(CCc1c(C)[nH]c2ccc(Cl)cc12)Cc1ccco1	inconclusive: 25.9 µM [inhibitor, single point]	
Cc1ccc(CSC2=Nc3ccccc3C3=NC(CC(=O)NCc4cccs4)C(=O)N23)c(C)c1 (stereo unspecified)	active: 20.6 µM	
COc1ccc2c(C=Nc3c(C)n(C)n(-c4ccccc4)c3=O)c(O)n(Cc3ccco3)c(=O)c2c1	inconclusive: 32.6 µM [inhibitor, single point] and inconclusive: 20.6 µM [inhibitor, single point]	
CCOc1ccccc1NC(=O)c1nc(S(=O)(=O)Cc2ccccc2F)ncc1Cl	inconclusive: 4.47 µM [inhibitor, full curve, poor fit]	
Cc1ccc(N=Nc2ccc(O)c(/C=N\NC(=O)c3ccc(N)cc3)c2)cc1C	active: 13 µM	
O=C(Nc1ccc2nc(SCCOc3ccccc3)sc2c1)c1ccccc1F	inconclusive: 14.6 µM [inhibitor, single point]	
COc1ccc(N(C(=O)c2snc(C(N)=O)c2N)C(C(=O)NC2CCCC2)c2ccc(OC)c(OC)c2)cc1 (stereo unspecified)		inactive: -21.4%
O=c1[nH][nH]cc1C=Nc1ccc(Cl)cc1Cl		inactive: 20.1%
COc1ccc(NC(=O)NCCN2CCN(c3cccc(Cl)c3)CC2)cc1	inconclusive: 18.4 µM [inhibitor, single point]	
Cc1cc(N2CCN(C3CCCCC3)CC2)nc2cccc(O)c12	inconclusive: 18.4 µM [inhibitor, partial curve]	
CC(=O)OCCCNc1cc(SCc2ccco2)c2nonc2c1[N+](=O)[O-]	inconclusive: 29.1 µM [inhibitor, single point]	
Cc1ccc(S(=O)(=O)N2CCN(C(=O)C3COc4ccccc4O3)CC2)cc1C (stereo unspecified)		inactive: -24.8%
COc1ccccc1-c1noc(-c2ccc(N3CCN(C)CC3)c([N+](=O)[O-])c2)n1	inconclusive: 3.66 µM [inhibitor, partial curve]	
Cc1ccc(NC(=O)c2cc(N3C(=O)C=CC3=O)ccc2N2CCOCC2)cc1	active: 2.31 µM	
O=S(=O)(NCCC1=CCCCC1)c1cccc(S(=O)(=O)N2CCOCC2)c1	active: 5.8 µM	
O=C(/C=C/c1ccccc1)Oc1coc(CSc2ncccn2)cc1=O	inconclusive: 20.6 µM [inhibitor, single point]	

Compound	Potency	activity change, negative = growth inhibition
COc1ccc(CNC(=O)c2noc(C)c2[N+](=O)[O-])cc1		inactive: -24.7%
CCOP(=O)(OCC)c1nc(-c2cccc3ccccc23)oc1NCc1ccc(OC)cc1	inconclusive: 16.4 µM [inhibitor, single point]	
CCCOc1ccc(CNC(=O)c2ccc3c(c2)N(Cc2ccccc2)CCS3)cc1	active: 18.4 µM	
Cc1ccc(C2CC(c3cccs3)=NN2C(=O)CSC2=NCCS2)cc1 (stereo unspecified)	inconclusive: 18.4 µM [inhibitor, partial curve]	
O=S(=O)(NN=C1CCCCCC1)c1ccccc1		inactive: 16.5%
Nc1nc2ncc(=O)[nH]c2c(=O)[nH]1	active: 14.6 µM	
COc1ccc(-c2ccc(C(=O)NCc3ccco3)c3occc23)c(C)c1	inconclusive: 14.6 µM [inhibitor, single point]	
CC(C)(C)S(=O)N1Cc2cc(C(=O)O)nc(-c3cccc(-c4cc5ccccc5o4)c3)c2[C@H]1CCO (stereo partly specified)		inactive: 43.7%
COc1ccc(NC(=O)c2c(NCc3cccs3)sc3c2CCCC3)c(OC)c1	active: 16.4 µM	
COc1ccc(/C=N/NC(=O)c2[nH]c(C)c(C(=O)N/N=C/c3ccc(OC)cc3)c2C)cc1	inconclusive: 32.6 µM [inhibitor, single point]	
Cc1ccc2nc(NC(=S)NC(=O)c3cccs3)sc2c1	inconclusive: 29.1 µM [inhibitor, single point]	
COc1cccc(C(=O)NC(=S)Nc2cccnc2)c1		inactive: -3.31%
COC(=O)C(CCSC)NC(=O)Cn1ncc2c([nH]c3ccccc32)c1=O (stereo unspecified)		inactive: -6.63%
O=C(N/N=C/c1c(O)ccc2ccccc12)C(=O)N1CCCC1	inconclusive: 6.51 µM [inhibitor, full curve, poor fit]	
COc1cccc2c1cc1c(=O)n(CC(=O)N3CCN(c4cccc(Cl)c4)CC3)nc(C)n12		inactive: -0.785%
O=C(COC(=O)COc1ccccc1)NC12CC3CC(CC(C3)C1)C2		inactive: -25.8%
CCOC(=O)c1c(C)c(C(=O)N2CCN(c3ccc(F)cc3)CC2)c(C)n1C	inconclusive: 18.4 µM [inhibitor, single point]	
CCCN1Cc2cccc(C(=O)NCCc3ccccc3)c2C1=O		inactive: -16.9%
Cc1noc(C)c1-c1ccc(C(=O)NCc2cccs2)c2occc12	inconclusive: 18.4 µM [inhibitor, single point]	
Cc1ccccc1NC(=S)c1ccc2ccccc2n1	inconclusive: 4.11 µM [inhibitor, single point]	
CCOC(=O)c1c(C)[nH]c(C)c1C(=O)COC(=O)/C=C/c1ccc(Cl)cc1	inconclusive: 23.1 µM [inhibitor, single point]	
O=C(Cc1cccc2ccccc12)N1CC[C@@]2(O)CCCC[C@H]2C1		inconclusive: -35.3% [inhibitor]
N#Cc1ccc(C(=O)Nc2nnc(-c3ccco3)o2)cc1	active: 6.51 µM	

— PubChem BioAssay AID686978 (National Center for Advancing Translational Sciences (NCATS), 2013)
